“And” between values parts separate entries of the source, which are not always exact repeats. Identical values can stand only once. Among all 16,000 compounds or so, about 40 (0.2%) were called active. About 1% were inconclusive and are not listed. The call rests on the fitted dose curve; in most records, active means well fitted activation curve with a large enough effect; inconclusive means small, poorly fitted or top-dose-only effect, or another doubt; inactive means no such curve, though single readings can be large or run the other way. This is one part of the list.
biological target: Rap guanine nucleotide exchange factor 4 (Homo sapiens) (UniProt Q8WZA2); assay: Validation qHTS for agonist of cAMP-regulated guanine nucleotide exchange factor 4 (EPAC2); conditions: EPAC2 Rap1B BODIPY-GDP exchange, fluorescence; activation: active compounds read high;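 further: exchange makes BODIPY-GDP fluorescence drop when released from Rap1B; series mostly up to about 150 µM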
Sequence of UniProt Q8WZA2 (Q8WZA2 whole entry, looked up): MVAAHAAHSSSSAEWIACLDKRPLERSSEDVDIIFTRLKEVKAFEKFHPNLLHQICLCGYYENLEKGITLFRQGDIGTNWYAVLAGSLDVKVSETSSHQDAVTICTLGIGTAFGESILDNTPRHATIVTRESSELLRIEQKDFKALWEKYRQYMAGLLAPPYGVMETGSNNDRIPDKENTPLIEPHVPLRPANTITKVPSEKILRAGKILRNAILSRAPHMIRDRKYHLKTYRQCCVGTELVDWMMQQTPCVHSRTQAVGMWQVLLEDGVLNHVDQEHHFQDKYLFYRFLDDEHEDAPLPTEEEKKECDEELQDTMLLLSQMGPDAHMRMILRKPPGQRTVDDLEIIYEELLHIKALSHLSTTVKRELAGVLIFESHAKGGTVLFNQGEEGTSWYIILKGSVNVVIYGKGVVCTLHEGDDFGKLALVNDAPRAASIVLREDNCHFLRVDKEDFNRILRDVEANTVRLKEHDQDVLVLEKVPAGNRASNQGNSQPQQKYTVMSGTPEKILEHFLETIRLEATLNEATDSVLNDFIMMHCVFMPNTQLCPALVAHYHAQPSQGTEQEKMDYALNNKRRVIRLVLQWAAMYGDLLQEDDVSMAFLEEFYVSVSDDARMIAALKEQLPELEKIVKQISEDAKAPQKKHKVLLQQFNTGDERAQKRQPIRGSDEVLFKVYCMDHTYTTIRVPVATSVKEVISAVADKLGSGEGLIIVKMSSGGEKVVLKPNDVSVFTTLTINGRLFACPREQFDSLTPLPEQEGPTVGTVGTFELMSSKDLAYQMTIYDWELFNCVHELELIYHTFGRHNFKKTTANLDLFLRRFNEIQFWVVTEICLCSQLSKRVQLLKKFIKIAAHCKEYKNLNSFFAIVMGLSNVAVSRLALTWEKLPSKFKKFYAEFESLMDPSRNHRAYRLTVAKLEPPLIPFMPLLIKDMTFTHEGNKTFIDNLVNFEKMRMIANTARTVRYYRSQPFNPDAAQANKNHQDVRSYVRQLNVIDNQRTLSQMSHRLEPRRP
Method in brief: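 Fluorescent exchange assay: 100 nM EPAC2 with 250 nM RAP1B-BODIPY-GDP and 50 uM GDP; compound added, 5 min at room temperature, then read (ex 480/em 540 nm) every 5 min for 30 min. Normalized to 6.5 mM cAMP agonist control.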
On the % scale 0 is the no-effect control and ±100 the full control effect.

activation, inactive:
CCC(O)CNC(=O)c1cnn(-c2nccc(-c3cc(C)sc3C)n2)c1C1CC1 (stereo not drawn) 7.28%
CN(C)Cc1ccccc1-c1cncnc1Nc1ccncc1 2.36%
COc1ccccc1CN1CCOc2ccc(CN3CCCCC3CO)cc2C1 (stereo not drawn) -0.288%
C[C@@H]1[C@H](c2ccccc2)OCCS(=O)(=O)N1Cc1cccc(C(F)(F)F)c1 -29.5%
Cc1c(C(=O)N2CCN(C)CC2)sc2ncnc(NCC3(c4ccccc4)CCOCC3)c12 5.9%
Cn1c(=O)cnc2cnc(OCc3ccccc3)nc21 -15.3%
C[C@@H]1OC(OC2C(OC3CC[C@@]4(C)C5CC=C6C7CC(C)(C)CC[C@@]7(C(=O)O)CCC6(C)C5(C)CCC4[C@]3(C)CO)OCC(O)C2O)C(O)C(O)C1O (stereo partly drawn) -17.8%
N#C/C(=C\c1ccc(O)c(O)c1)C(=O)OCCc1cccs1 -14.6%
COCCn1c(=O)c(-c2ccc(Cl)cc2)nc2cncnc21 -6.48%
CCOC(=O)Cn1cccc1-c1nc(-c2ccc(OC)cc2)c(-c2ccc(OC)cc2)s1 -15%
COc1ccc2[nH]cc(CCNc3ncnc4ccc(-c5ccccc5CN(C)C)cc34)c2c1 -8.81%
C1COC(NC(C2CC2)C2CC2)=N1 1.11% and 7.3% and -34.1%
C#CCN[C@@H]1CCc2ccccc21 -4.24%
C[C@](N)(COP(=O)(O)O)C(=O)O 1.27%
Cn1c(=O)[nH]c2ncn(C)c2c1=O 2.58% and -4.56% and -18.7%
Cc1nc2cncnc2n(C2CC2)c1=O -14.4%
COc1ccc2ccccc2c1CN1CCCC(n2cc(C(=O)N3CCCC3)nn2)C1 (stereo not drawn) -9.86%
COc1ccccc1CN1CC[C@@]2(CCCN(C(=O)c3cccn3C)C2)C1 -10.6%
CCOc1ccc(NS(=O)(=O)c2ccc(N)cc2)nn1 -12%
N[C@@H](C(=O)O)c1ccc(C(=O)O)c(O)c1 -1.93%
C=CCSSSCC=C -32.3%
O=C(O)[C@@H]1CN[C@@H](C(=O)O)C1 11.8%
OCCN1CCN(Cc2ccc3c(c2)CN(Cc2cccn2-c2ccccn2)CCO3)CC1 -10.3%
Cc1cc(C(C)(C)C)c(O)c(C(C)(C)C)c1 -35.9% and -8.06%
COc1ccc(-c2cc(=S)ss2)cc1 -1.8%
COc1ccc(S[C@@H](CCN2CC[C@H](NC(=O)OCc3ccccc3)CCC2=O)c2ccccc2)cc1 -29.5%
CN(C)c1ccc(-c2cncnc2Nc2ccc(F)cc2)cc1 -3.86%
COc1ccc2c(c1)OCC(Cc1ccc(OC)c(O)c1)C2=O (stereo not drawn) 0.531%
CN(CCO)C(=O)c1cn(C2CCN(Cc3c(F)cccc3Cl)CC2)nn1 -17.5%
CC(C)=CCC1=C(O)[C@](O)(CC=C(C)C)C(=O)C(C(=O)CC(C)C)=C1O -18.5%
CC(C)O -6.26%
CCCS(=O)(=O)NCc1c(C)ncc2c1CCN(C(=O)/C=C/c1ccc(F)cc1F)C2 -3.2%
O=S(=O)(c1ccccc1)N1CCC2(CCCN(Cc3nccs3)C2)CC1 -1.34%
COC(=O)[C@@H]1CCCN1Cc1ccc2c(c1)CN(Cc1coc3ccc(C)cc3c1=O)CCO2 -19.1%
O=C1CS(=O)(=O)N(Cc2cccc(F)c2)c2ccc(Br)cc21 -8.76%
CCCn1c(=O)[nH]c(=O)c2[nH]cnc21 8.06% and -15.5%
COC(=O)Nc1nc2ccc(Sc3ccccc3)cc2[nH]1 -11.3% and -30.3%
C/C=C(\C)C(=O)NCCN1Cc2ccccc2OC(c2ccccc2OC)C1 (stereo not drawn) -0.335%
N#Cc1ccc(CN2CC3(CCN(C(=O)c4cccc(F)c4)CC3)C2)cc1 -6.9%
COc1ccc(NC(=O)N2CCC3(CC2)CCN(S(C)(=O)=O)CC3)cc1 -20.9%
CC(=O)c1ccc(F)c(-c2cc(C)cc3c2OC(CNC(=O)C[C@@H]2C[C@@H](C)NC(=S)N2)C3)c1 (stereo partly drawn) -13.4%
CCC1(C2CCN(C(=O)c3ccc4ccccc4c3)CC2)NC(=O)N(CCc2scnc2C)C1=O (stereo not drawn) -7.84%
CN1c2cc(O)c(N=NC(N)=O)cc2CC1S(=O)(=O)O (stereo not drawn) -7.36%
COc1cc(=O)n(C)c2c(OCC3OC(C)(C)OC3(C)C)cccc12 (stereo not drawn) -21.3%
C[N+](C)(C)CC=O -11%
N#Cc1cccc(-c2cc(NCc3cccnc3)ncn2)c1 5.48%
O=c1c(-c2ccc(Cl)cc2)nc2cncnc2n1Cc1ccc(F)cc1 -5.86%
O=C(Nc1ccc(Cl)cc1)Nc1ccc(Cl)c(C(F)(F)F)c1 22.9%
O=c1cc(-c2ccc(O)cc2O)oc2ccccc12 -6.9%
COc1ccc(F)c(CN2CCC3(CCC(CNC(=O)c4ccn(C)n4)O3)CC2)c1 (stereo not drawn) -1.52%
O=C(CN1Cc2ccccc2OC(c2ccsc2)C1)N1CCC(c2nc3ccccc3[nH]2)CC1 (stereo not drawn) 6.94%
OC[C@H]1O[C@@H](n2cnc3c(NC4CCCC4)ncnc32)[C@H](O)[C@@H]1O 4.21% and -19.4%
COc1ccc(/C=C/C(=O)c2ccc(O)cc2O)cc1 -10.7%
C1CCC(C(CC2CCCCN2)C2CCCCC2)CC1 (stereo not drawn) -39.2%
COCCn1c(=O)c(-c2ccc(OC)cc2)nc2cnc(N3CCNCC3)nc21 -5.32%
CC(C)N(c1ccc(C=O)cc1)C(C)C -3.34%
C[C@@H]1CN(Cc2ccc3c(c2)CN(Cc2cn[nH]c2-c2ccccc2)CCO3)C[C@H](C)O1 -5.28%
FC(F)(F)c1ccccc1-c1cncnc1NCCN1CCOCC1 -18.8%

From PubChem BioAssay AID1645887 (National Center for Advancing Translational Sciences (NCATS), 2021)
